# Laboratory results taken from publication PMC4336329 (PLoS ONE, 2015).
# Hit rate of the full screen: of about 310,000 compounds, about 2,200 (0.71%) showed an effect of 50% or more. Effects have a minus sign here. Some of the results follow.
# Target: human ether-à-go-go-related gene (hERG) potassium channel (human, UniProt Q12809)
# Assay: primary screen, population patch clamp on CHO cells stably expressing hERG
# human ether-à-go-go-related gene (hERG) potassium channel, sequence (Q12809 whole entry, looked up): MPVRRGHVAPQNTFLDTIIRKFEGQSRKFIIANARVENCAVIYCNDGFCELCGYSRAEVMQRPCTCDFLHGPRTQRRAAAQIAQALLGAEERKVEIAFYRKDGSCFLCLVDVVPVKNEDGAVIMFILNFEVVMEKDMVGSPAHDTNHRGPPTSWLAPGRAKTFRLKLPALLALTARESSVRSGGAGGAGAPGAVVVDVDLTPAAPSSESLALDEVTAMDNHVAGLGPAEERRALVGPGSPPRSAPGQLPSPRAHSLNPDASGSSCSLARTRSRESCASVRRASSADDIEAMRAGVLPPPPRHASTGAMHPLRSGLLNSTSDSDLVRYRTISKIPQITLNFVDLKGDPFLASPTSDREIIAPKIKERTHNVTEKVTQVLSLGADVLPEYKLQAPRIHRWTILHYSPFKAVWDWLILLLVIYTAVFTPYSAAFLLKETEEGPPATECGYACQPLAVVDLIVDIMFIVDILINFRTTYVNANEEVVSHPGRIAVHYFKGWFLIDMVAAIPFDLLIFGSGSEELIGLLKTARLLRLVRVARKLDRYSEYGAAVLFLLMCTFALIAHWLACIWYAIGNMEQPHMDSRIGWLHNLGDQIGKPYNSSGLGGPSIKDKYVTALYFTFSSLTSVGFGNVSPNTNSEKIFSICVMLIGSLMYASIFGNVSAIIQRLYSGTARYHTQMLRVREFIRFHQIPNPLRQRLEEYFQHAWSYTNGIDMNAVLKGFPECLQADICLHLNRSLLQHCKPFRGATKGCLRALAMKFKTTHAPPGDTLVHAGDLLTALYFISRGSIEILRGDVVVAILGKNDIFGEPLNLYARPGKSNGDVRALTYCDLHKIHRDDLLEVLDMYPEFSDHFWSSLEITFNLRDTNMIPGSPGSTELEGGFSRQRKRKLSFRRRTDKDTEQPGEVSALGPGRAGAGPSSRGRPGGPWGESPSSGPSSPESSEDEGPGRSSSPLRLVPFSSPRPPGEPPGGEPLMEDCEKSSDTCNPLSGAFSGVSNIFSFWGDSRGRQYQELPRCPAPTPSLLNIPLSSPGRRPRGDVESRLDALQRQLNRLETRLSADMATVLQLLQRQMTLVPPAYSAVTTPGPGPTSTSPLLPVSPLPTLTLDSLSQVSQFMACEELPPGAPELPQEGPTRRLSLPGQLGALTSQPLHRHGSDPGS
row,SMILES,"hERG current change (%, negative = inhibition) at 1uM [%]"
1,COc1ccc(NC(=O)c2ccco2)cc1NC(=O)c1ccccc1F,22.2
2,CNc1nc(N)c([N+](=O)[O-])c(NCCO)n1,13.6
3,CC(C)(C)NCc1cccn1-c1sc2c(c1C#N)CCCC2,3.29
4,CC(C)(C)C1CCC(C(=O)Nc2ccccc2)CC1 (stereo not drawn),6.47
5,COc1ccc(NC2=C(NCCO)C(=O)c3ccccc3C2=O)cc1,12.2
6,Cn1c(CN2CCN(C(=O)c3ccccc3)CC2)nc2cc([N+](=O)[O-])ccc21,-29.6
7,N#C/C(=C\c1ccc(OCc2ccccc2)cc1)C(N)=O,2.11
8,CC(C)Nc1ncnc2c1cnn2Cc1ccc(Cl)cc1,2.45
9,N#CCSc1nnc(C2CCCCC2)n1Cc1ccccc1,3.1
10,COCCCOc1ccnc(CS(=O)c2nc3ccccc3[n-]2)c1C.[Na+] (stereo not drawn),7.48
11,CCCSc1nc(O)c(C(c2ccc(OC)c(O)c2)c2c(O)nc(SCCC)n(C)c2=O)c(=O)n1C,4.06
12,Cc1nc([N+](=O)[O-])cn1CC(O)c1ccccc1 (stereo not drawn),27.6
13,CCN(C(=O)Cn1cnc2ccccc2c1=O)C1CCS(=O)(=O)C1 (stereo not drawn),4.39
14,O=c1c2cc(NC(=S)NC3CCCCC3)ccc2nc2n1CCCCC2,-9.63
15,Cc1cccc(C(=S)N2CCOCC2)n1,7.26
16,CCOc1ccccc1NC(=O)C(NCCN(C)C)c1ccccc1.O=C(O)C(=O)O (stereo not drawn),-49.1
17,O=C(Cn1c2c(c(-c3ccccc3)cc1=O)CCCC2)N1CCCCCC1,9.85
18,Cc1ccc(S(=O)(=O)N(C)CC(=O)NCC(c2ccc(F)cc2)N2CCOCC2)cc1 (stereo not drawn),3.5
19,CCOC(=O)c1cnn(C)c1NC(=O)c1ccc(Cl)cc1Cl,3.54

row,SMILES,"hERG current change (%, negative = inhibition) at 1uM [%]"
1,CCC(C)c1ccc(NC(=S)NCc2cccnc2)cc1 (stereo not drawn),-7.31
2,Br.Oc1ccc(C2CNCCc3c2cc(O)c(O)c3Cl)cc1 (stereo not drawn),2.61
3,COCCN(C(=O)c1ccc(NC2CC2)c([N+](=O)[O-])c1)c1c(N)n(CC(C)C)c(=O)[nH]c1=O,0.665
4,Cn1nnc2cc(C(=O)NC(C)(C)C)ccc21,5.98
5,COc1ccc(OCC(=O)Nc2cc(NC(=O)c3ccco3)ccc2OC)cc1,8.94
6,COc1cccc(N2CCN(c3ccc4nnc(CCC(=O)N5CCN(C)CC5)n4n3)CC2)c1,15.4
7,Oc1ccc(Cl)cc1CN1CCN(Cc2ccccc2)CC1,10.9
8,COc1ccccc1CC(=O)Nc1ccc(S(=O)(=O)N2CCN(C)CC2)cc1,16.3
9,COc1ccc(Br)cc1S(=O)(=O)NCCN1CCOCC1,9.2
10,Cn1c(SCc2cnc(-c3ccccc3)s2)nnc1C1COc2ccccc2O1 (stereo not drawn),4.31
11,Cc1ccc(C(=O)NCc2ccc3c(c2)OCO3)cc1N1CCCC1=O,12.6
12,COC(=O)c1cccc(NC(=O)C2C3CCC(C3)C2C(=O)O)c1 (stereo not drawn),-1
13,CC1Cc2nc(SCC(N)=O)n(C)c(=O)c2S1 (stereo not drawn),0.645
14,CCCc1cc(=O)oc2cc(OCC(=O)NCCCn3ccnc3)c(Cl)cc12,1.29
15,Cc1ccc(-n2nc3c(=O)n(CCCC(=O)NCc4ccccc4Cl)nc(C)c3c2C)cc1,7.78
16,O=c1c(-c2ccc(Cl)cc2)[n+]([O-])c2ccccc2n1OCc1nc2ccccc2[nH]1,7.99
17,Cc1ccc(C(O)(C(=O)NNc2ccccn2)c2ccc(C)cc2)cc1,9.2
18,COc1ccc(-c2csc3ncn(-c4ccccc4OC)c(=O)c23)cc1OC,0.0337
19,Cc1c(C(=O)Nc2cccc(Cl)c2)oc2ccc(S(=O)(=O)N3CCC4(CC3)OCCO4)cc12,2

row,SMILES,"hERG current change (%, negative = inhibition) at 1uM [%]"
1,COc1ccc(S(=O)(=O)N(C)c2ccccc2)c2cccnc12,-0.411
2,O=[N+]([O-])c1ccc2c(c1)OCCOCCOCCOCCOCCOCCO2,-32.5
3,CC(=C1C(=O)c2ccccc2C1=O)N1CCN(C/C=C/c2ccccc2)CC1,-4.38
4,O=C(CCN1CCN(c2ccccc2)CC1)Nc1ccc(Cl)cc1,9.14
5,Cc1ccc(C(=O)N2CCSC2=S)cc1,9.04
6,Cc1csc(CN(C)C(=O)C2CCC(=O)N(Cc3ccc(Cl)cc3)C2)n1 (stereo not drawn),1.23
7,COc1cccc(NC(=O)Cc2c(C(=O)O)[nH]c3ccccc23)c1,-1.12
8,O=C(COC(=O)Cc1cccs1)NCc1ccc(F)cc1,17
9,COc1ccc(NC(=O)CSc2nnc(-c3ccoc3C)n2CCc2ccccc2)cc1,1.36
10,CCN(C(=O)COC(=O)C1CCN(S(=O)(=O)c2ccc3c(c2)OCCO3)CC1)C1CCCCC1,18
11,CN(CCCN1CCCCC1)C(=O)CCc1nnc(C2CCCCC2)o1,14.1
12,CN(c1ccccc1)S(=O)(=O)c1cccc(NC(=O)CN2C(=O)NC3(CCCCC3)C2=O)c1,9.71
13,O=C(NC1CC1)c1ccc(NS(=O)(=O)c2ccccc2)cc1,18.4
14,CCCCNS(=O)(=O)c1ccc2nc(-c3cccs3)cc(C(=O)NCC(OC)OC)c2c1,6.15
15,O=S(=O)(c1ccc(N2CCN(CCO)CC2)nc1)N1CCOCC1,0.34
16,CC1CCCC(C)N1C(=O)COc1ccc(-c2nnco2)cc1 (stereo not drawn),9.31
17,Cc1ccc(-n2nnnc2SCC(=O)N2CCCCC2)cc1,2.32
18,Oc1ccc(Br)cc1/C=N/n1c(C2CCCCC2)n[nH]c1=S,14.8
19,COc1cccc(NC(=O)NCc2cccn2C)c1,11.2
